Measurements reported in publication PMC12820563.
Some of the results follow. The list includes weakly bound sequences.

These sequences were tested against T1, MBP-FoxP3dN (UniProt Q99JB6) (assay: PD-seq (MBP pull-down with sequencing)). Conditions: 20 mM Tris-HCl pH 7.5, 100 mM NaCl, 1.5 mM MgCl2, 0.4 uM protein, 0.1 uM dsDNA library, 30 min, room temperature, amylose pull-down; high values mean tight binding; double strand, one strand shown.
T1 sequence: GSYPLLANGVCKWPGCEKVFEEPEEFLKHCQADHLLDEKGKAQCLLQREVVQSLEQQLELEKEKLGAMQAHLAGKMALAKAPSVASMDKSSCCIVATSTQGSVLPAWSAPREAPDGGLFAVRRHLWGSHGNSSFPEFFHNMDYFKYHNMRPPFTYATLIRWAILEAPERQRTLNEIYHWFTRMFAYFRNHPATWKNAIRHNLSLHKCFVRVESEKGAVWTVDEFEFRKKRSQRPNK

Sequence | binding signal (RPM ratio (pull-down/input))
GATGATTGTTCTCCCAGCTGATGAATTGCAAGGCTCGAGTAAACAAATTTTCCTAATCTTTCTGTTCAAGCGCCATCTAC | 0.628
GATGATTGTTCTCCCAGCTGATGAATTGTAGAGATCGAGTAAACAAATTTTCCTAATCTTTCTGTTCAAGCGCCATCTAC | 0.337
GATGATTGTTCTCCCAGCTGATGAATTAGTTGTATCGAGTAAACAAATTTTCCTAATCTTTCTGTTCAAGCGCCATCTAC | 5.31
GATGATTGTTCTCCCAGCTGATGAATTTTTATGGTCGAGTAAACAAATTTTCCTAATCTTTCTGTTCAAGCGCCATCTAC | 0.277
GATGATTGTTCTCCCAGCTGATGAATTTAGGATGTCGAGTAAACAAATTTTCCTAATCTTTCTGTTCAAGCGCCATCTAC | 0.523
GATGATTGTTCTCCCAGCTGATGAATTGCTTCGATCGAGTAAACAAATTTTCCTAATCTTTCTGTTCAAGCGCCATCTAC | 0.445
GATGATTGTTCTCCCAGCTGATGAATTAGTCATTTCGAGTAAACAAATTTTCCTAATCTTTCTGTTCAAGCGCCATCTAC | 2.06
GATGATTGTTCTCCCAGCTGATGAATTCTGACTTTCGAGTAAACAAATTTTCCTAATCTTTCTGTTCAAGCGCCATCTAC | 1.12
GATGATTGTTCTCCCAGCTGATGAATTTTACCAGTCGAGTAAACAAATTTTCCTAATCTTTCTGTTCAAGCGCCATCTAC | 0.19
GATGATTGTTCTCCCAGCTGATGAATTCTTACGTTCGAGTAAACAAATTTTCCTAATCTTTCTGTTCAAGCGCCATCTAC | 0.283
GATGATTGTTCTCCCAGCTGATGAATTAGTAAGCTCGAGTAAACAAATTTTCCTAATCTTTCTGTTCAAGCGCCATCTAC | 0.768
GATGATTGTTCTCCCAGCTGATGAATTTTTCGCCTCGAGTAAACAAATTTTCCTAATCTTTCTGTTCAAGCGCCATCTAC | 0.467
GATGATTGTTCTCCCAGCTGATGAATTAACGAATTCGAGTAAACAAATTTTCCTAATCTTTCTGTTCAAGCGCCATCTAC | 0.722
GATGATTGTTCTCCCAGCTGATGAATTTCTGCCATCGAGTAAACAAATTTTCCTAATCTTTCTGTTCAAGCGCCATCTAC | 2.1
GATGATTGTTCTCCCAGCTGATGAATTGTCCAAGTCGAGTAAACAAATTTTCCTAATCTTTCTGTTCAAGCGCCATCTAC | 0.196
GATGATTGTTCTCCCAGCTGATGAATTGGCGTATTCGAGTAAACAAATTTTCCTAATCTTTCTGTTCAAGCGCCATCTAC | 1.54
GATGATTGTTCTCCCAGCTGATGAATTTACTTAGTCGAGTAAACAAATTTTCCTAATCTTTCTGTTCAAGCGCCATCTAC | 0.917
GATGATTGTTCTCCCAGCTGATGAATTTGCTTGATCGAGTAAACAAATTTTCCTAATCTTTCTGTTCAAGCGCCATCTAC | 2.2
